Results reported in the supplement of paper PMC4723716.
± gives the uncertainty stated by the source. Over roughly 9,900 compounds, “viability index relative to DMSO control” has its median near 1; the lowest 2% begin near 0.85. Some of the results follow.

System: Plasmodium falciparum NF54 stage V gametocytes
Assay: viability index relative to DMSO control (fraction); higher = less gametocyte killing
Conditions: 2.5 µM, library set: Broad Institute DOS, incubation time: 72 h
Method in brief: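 In 1,536-well plates, 10 µl of serum-free medium holding P. falciparum NF54 stage V gametocytes (0.75% gametocytemia, 1.25% hematocrit) received compound at 2.5 µM for 72 hr at 37°C in low oxygen. After one to two hours with 3 µl of 2.5 µM MitoTracker Red CMXRos containing 0.13% saponin, red particles of 20–70 µm2 were counted in a single field per well. Viability index is reported as the particle count over the plate mean of wells treated with solvent only.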

| SMILES | viability index |
| --- | --- |
| O=S(=O)(NC[C@H]1[C@H](c2ccccc2)[C@H](CO)N1CC1CC1)c1ccccc1 | 1.02 ± 0.16 |
| CCS(=O)(=O)N1C[C@@]2(C1)CN(C)[C@H](CO)c1c2c2ccc(OC)cc2n1C | 1.04 ± 0.072 |
| O=C(C1CCOCC1)N1CC(=O)N2[C@@H](CO)[C@H](c3ccc(C#CCc4ccccc4)cc3)[C@@H]2C1 | 1.084 ± 0.0042 |
| CC(=O)N(CC1CCC1)C[C@H]1N[C@H](CO)[C@@H]1c1ccc(C2=CCCC2)cc1 | 0.987 ± 0.059 |
| COc1cccc(NC(=O)C[C@H]2CC[C@H]3[C@@H](COc4ccc(NS(=O)(=O)c5cccc(F)c5)cc4C(=O)N3C)O2)c1 | 1.147 ± 0.003 |
| O=C(NC1CCCC1)[C@H]1[C@H](CO)[C@H]2Cn3c(cccc3=O)[C@@H]1N2C(=O)CC1CC1 | 1.05 ± 0.051 |
| COCC(=O)N1C[C@@]2(C1)CN(Cc1ccccc1F)[C@H](CO)c1[nH]c3cc(OC)ccc3c21 | 0.986 ± 0.11 |
| OC[C@H]1[C@@H](c2ccc(Br)cc2)[C@H]2CNCCCCN21 | 1.01 ± 0.06 |
| COc1cccc(S(=O)(=O)N2C[C@H](O)COC[C@@H]3O[C@H](CC(=O)NCCCN4CCOCC4)CC[C@H]32)c1 | 1.13 ± 0.012 |
| Cc1noc(C)c1S(=O)(=O)N(C)C[C@H]1OCCCC[C@H](C)Oc2ccc(NC(=O)CCC(F)(F)F)cc2C(=O)N([C@H](C)CO)C[C@@H]1C | 1.13 ± 0.054 |
| C[C@@H]1CN([C@H](C)CO)C(=O)c2cc(NC(=O)Nc3ccccc3)ccc2O[C@H]1CN(C)Cc1ccccc1 | 1.03 ± 0.049 |
| CCc1cnc(N2[C@@H](C#N)[C@@H](c3ccc(C#Cc4ccccc4F)cc3)[C@@H]2CO)s1 | 1.08 ± 0.056 |
| C[C@@H]1CN([C@H](C)CO)C(=O)c2cc(NC(=O)Cc3ccccc3)ccc2O[C@@H](C)CCCCO[C@@H]1CN(C)Cc1ccncc1 | 1.13 ± 0.062 |
| CNC[C@@H]1Oc2c(NS(=O)(=O)c3ccc(Cl)cc3)cccc2C(=O)N([C@H](C)CO)C[C@H]1C | 0.9776 ± 0.0086 |
| CC(C)(C)[S@@](=O)N1Cc2cc(C(=O)N[C@H]3CCN(Cc4ccccc4)C3)nc(-c3cccc(-c4cccnc4)c3)c2[C@H]1CCO | 1.03 ± 0.04 |
| O=C(C[C@H]1C[C@H]2c3cc(NS(=O)(=O)c4ccccc4)ccc3O[C@H]2[C@H](CO)O1)N1CCOCC1 | 0.946 ± 0.0031 |
| CN(C)C(=O)c1ccc(-c2ccccc2[C@@H]2[C@@H](C#N)N(C(=O)C3CC3)[C@@H]2CO)cc1 | 1.11 ± 0.1 |
| CCS(=O)(=O)N1[C@H](C#N)[C@@H](c2ccc(C#Cc3ccccc3F)cc2)[C@H]1CO | 1.05 ± 0.032 |
| COc1ccc2c3c([C@@H](CO)NC[C@]33CCN(Cc4cc(on4)-c4ccccc4)CC3)n(C)c2c1 | 0.9102 ± 0.0072 |
| COc1ccccc1C(=O)Nc1ccc2c(c1)C(=O)N(C)C[C@H](OC)[C@@H](C)CN(C(C)=O)[C@H](C)CO2 | 0.968 ± 0.041 |
| O=C(Cc1ccccn1)N[C@H]1CC[C@@H](CCNS(=O)(=O)c2cccc(F)c2)O[C@@H]1CO | 1.06 ± 0.069 |
| COCC#Cc1ccc([C@H]2[C@H](CO)N3CCCCN(C(=O)NC4CCCC4)C[C@@H]23)cc1 | 0.984 ± 0.04 |
| Cn1cnc(CCNC(=O)C[C@H]2CC[C@@H]3[C@H](COC[C@H](O)CN3C(=O)Nc3ccc(C(F)(F)F)cc3)O2)c1 | 1.1 ± 0.088 |
| COc1cccc(CN2[C@H](CO)[C@H](c3ccccc3)C23CN(C(=O)C2CCCCC2)C3)c1 | 1.12 ± 0.0075 |

| SMILES | viability index |
| --- | --- |
| Cc1cccc(-c2ccc([C@@H]3[C@@H]4CN(Cc5cccc(F)c5)C[C@H]3N4)cc2)c1 | 0.816 ± 0.064 |
| CC(C)NC(=O)N(C)C[C@H]1Oc2ccc(NC(=O)Cc3ccccc3)cc2CC(=O)N([C@H](C)CO)C[C@H]1C | 1.02 ± 0.014 |
| Cc1noc(C)c1NC(=O)Nc1ccc2c(c1)C(=O)N([C@@H](C)CO)C[C@@H](C)[C@@H](CN(C)S(=O)(=O)c1cccs1)OCCCC[C@H](C)O2 | 1.05 ± 0.014 |
| CO[C@H]1CN(C)C(=O)c2cc(NC(=O)C3CCCCC3)ccc2OC[C@H](C)N(Cc2cccnc2)C[C@@H]1C | 1.03 ± 0.028 |
| CCC(=O)N1CC2(C1)[C@H](c1ccccc1)[C@H](CO)N2CC1CC1 | 1.08 ± 0.048 |
| CCS(=O)(=O)Nc1ccc2c(c1)C(=O)N(C)[C@H]1CC[C@@H](CC(=O)NCc3ccccc3F)O[C@H]1CO2 | 1.17 ± 0.18 |
| COc1ccc2c3c([C@@H](CO)N(C[C@]33CCN(CC3)S(=O)(=O)c3cccc(C)c3)C(=O)Nc3ccc(F)cc3)n(C)c2c1 | 0.998 ± 0.011 |
| O=S(=O)(c1cccs1)N1CCCCN2[C@H](C1)[C@H](c1ccc(/C=C/c3ccccc3)cc1)[C@@H]2CO | 0.924 ± 0.016 |
| C[C@@H]1COCc2cn(nn2)CCCC(=O)N1 | 1.004 ± 0.0086 |
| CO[C@H](CN(C)C(=O)c1cnccn1)[C@H](C)CN([C@H](C)CO)S(=O)(=O)c1ccccc1 | 0.948 ± 0.067 |
| O=C(C[C@H]1CC[C@@H]2[C@H](COC[C@H](O)CN2Cc2cocn2)O1)N[C@@H]1CCN(Cc2ccccc2)C1 | 1.05 ± 0.038 |
| O=C(CN1CCOCC1)N1CC(=O)N2[C@H](CO)[C@@H](c3ccc(-c4cccc(F)c4)cc3)[C@@H]2C1 | 1.01 ± 0.12 |
| C[C@@H]1CCCCO[C@H](CN(C)C(=O)NC2CCCCC2)[C@@H](C)CN([C@@H](C)CO)C(=O)c2cc(N(C)C)ccc2O1 | 1.12 ± 0.099 |
| O=C(Cc1cccnc1)N1CC(=O)N2[C@H](C1)[C@@H](c1ccc(C#CC3CCCCC3)cc1)[C@@H]2CO | 0.985 ± 0.11 |
| C[C@H](CO)N1C[C@H](C)[C@H](CN(C)S(=O)(=O)c2cn(C)cn2)Oc2ccc(NC(=O)C3CC3)cc2CC1=O | 0.912 ± 0.032 |
| C[C@@H](O)C#Cc1ccc([C@@H]2[C@H](CO)N3CCCCN(C(=O)c4ccc5c(c4)OCO5)C[C@@H]23)cc1 | 1.018 ± 0.0019 |
| COc1ccc(-c2ccccc2[C@@H]2[C@H](C#N)N(C(=O)c3cccnc3)[C@H]2CO)cc1 | 1.11 ± 0.099 |
| O=C(C[C@H]1CC[C@H]2NC[C@@H](O)COC[C@@H]2O1)Nc1ccc(-c2ccccc2)cc1 | 0.997 ± 0.036 |
| CC(=O)N1CC2(C1)[C@H](c1ccc(-c3ccc(F)cc3)cc1)[C@H](CO)N2CC1CC1 | 1.02 ± 0.021 |
| CCC(=O)N1CC[C@@H]2[C@H]1c1cc(C#Cc3ccccc3F)ccc1N[C@@H]2CO | 1.05 ± 0.035 |
| O=C(C1CCCC1)N1CC2(C1)[C@@H](c1ccccc1)[C@@H](CO)N2Cc1ccc(Cl)cc1 | 1.02 ± 0.084 |
| Cc1noc(C)c1NC(=O)Nc1ccc2c(c1)C(=O)N([C@@H](C)CO)C[C@@H](C)[C@H](CN(C)S(=O)(=O)c1cccs1)OCCCC[C@H](C)O2 | 0.928 ± 0.037 |
| C[C@@H]1CN([C@@H](C)CO)C(=O)c2ccccc2-c2ccccc2CO[C@H]1CN(C)C(=O)[C@H](Cc1ccccc1)N(C)C | 1.06 ± 0.12 |
| CNC[C@H]1OCc2cn(nn2)CCCC(=O)N([C@@H](C)CO)C[C@@H]1C | 1.05 ± 0.049 |

| SMILES | viability index |
| --- | --- |
| O=C(O)C[C@H]1C[C@@H]2c3cc(NC(=O)Nc4ccc(C(F)(F)F)cc4)ccc3O[C@@H]2[C@@H](CO)O1 | 1.07 ± 0.042 |
| CC(=O)N1[C@H](CNC(=O)C2CC2)[C@@H](c2ccc(-c3ccccc3)cc2)[C@@H]1CO | 1.05 ± 0.017 |
| CO[C@@H]1CN(C)C(=O)c2cc(NC(=O)Nc3ccccc3F)ccc2OC[C@H](C)N(CCC(F)(F)F)C[C@H]1C | 1.02 ± 0.043 |
| O=C(C[C@@H]1CC[C@@H]2[C@H](COC[C@H](O)CN2C(=O)c2ccccc2F)O1)NCc1ccc(Cl)c(Cl)c1 | 1.02 ± 0.012 |
| O=C(N[C@H]1C=C[C@H](CC(=O)N2CCN(c3ccccc3)CC2)O[C@H]1CO)c1ccccc1 | 1.15 ± 0.086 |
| C[C@H](CO)N1C[C@H](C)[C@H](CN(C)CC2CC2)OCCCC[C@H](C)Oc2ccc(NC(=O)c3ccccc3)cc2C1=O | 1.06 ± 0.034 |
| COc1ccc2c3c([nH]c2c1)[C@@H](CO)N(C[C@]31CN(C1)C(=O)Nc1cccc(F)c1)C(=O)NC1CCCC1 | 1.05 ± 0.061 |
| OC[C@H]1Nc2ccc(-c3cccc(F)c3)cc2[C@H]2[C@@H]1CCN2Cc1ccc(F)cc1 | 1.03 ± 0.058 |
| O=C(C[C@@H]1CC[C@H]2[C@@H](COC[C@@H](O)CN2Cc2ccc3c(c2)OCO3)O1)N1CCCCC1 | 0.9874 ± 0.0033 |
| COc1cccc(C(=O)Nc2ccc3c(c2)C(=O)N(C)[C@H]2CC[C@H](CC(=O)N[C@H](C)c4ccccc4)O[C@H]2CO3)c1 | 0.9936 ± 0.0046 |
| C[C@@H]1CN([C@H](C)CO)C(=O)CCCn2nncc2CO[C@@H]1CN(C)S(=O)(=O)c1cn(C)cn1 | 1.05 ± 0.068 |
| C[C@@H]1CN([C@@H](C)CO)C(=O)CCCn2cc(nn2)CO[C@@H]1CN(C)C(=O)Nc1cccc2ccccc12 | 1.02 ± 0.023 |
| C(=C\c1ccc([C@@H]2[C@@H]3CN(Cc4ccc5c(c4)OCO5)C[C@H]2N3)cc1)/c1ccccc1 | 0.9695 ± 0.0022 |
| CC(=O)N1[C@H](CO)[C@H]2c3ccccc3N(S(=O)(=O)c3ccccc3C)C[C@H]21 | 1.054 ± 0.0066 |
| COc1ccccc1-c1ccc2c(c1)O[C@@H](CN(C)CC1CCOCC1)[C@H](C)CN([C@H](C)CO)S2(=O)=O | 0.945 ± 0.027 |
| COc1ccc([C@@H]2C/C=C\C[C@H](C(C)C)NC(=O)CCC(=O)N2)c(OC)c1 | 1.04 ± 0.025 |
| C[C@H](CO)N1C[C@H](C)[C@@H](CN(C)C(=O)c2ccc(N3CCN(C)CC3)cc2)OCc2cnnn2CCCC1=O | 1.06 ± 0.11 |
| C[C@@H]1CN([C@@H](C)CO)C(=O)c2cc(NS(=O)(=O)c3ccc(Cl)cc3)ccc2O[C@@H](C)CCCCO[C@@H]1CN(C)Cc1ccncc1 | 1.024 ± 0.0085 |
| COCC(=O)N1[C@H](CO)[C@@H]2c3ccccc3NC[C@@H]21 | 1.05 ± 0.024 |
| CCN(C[C@H]1N[C@H](CO)[C@H]1c1ccccc1)C(=O)c1ccncc1 | 1.02 ± 0.053 |
| Cc1noc(C)c1NC(=O)Nc1ccc2c(c1)C(=O)N([C@H](C)CO)C[C@@H](C)[C@@H](CN(C)Cc1ccc3c(c1)OCO3)OCCCC[C@H](C)O2 | 1.07 ± 0.079 |
| N#C[C@@H]1[C@@H](c2ccccc2-c2ccccc2F)[C@H](CO)N1C(=O)c1cccc(F)c1 | 1.1 ± 0.13 |
| COc1ccc(S(=O)(=O)N(C)C[C@@H]2Oc3ccc(NC(=O)Cc4cn(C)c5ccccc45)cc3C(=O)N([C@@H](C)CO)C[C@H]2C)cc1 | 0.958 ± 0.1 |
